# Measurements published in paper PMC4336329 (PLoS ONE, 2015).
# Screen size: about 310,000 compounds; about 14,000 (4.5%) showed an effect of 50% or more. Effects have a minus sign here. Some of the results follow.
# Molecular target: human ether-à-go-go-related gene (hERG) potassium channel (human, UniProt Q12809)
# Test: primary screen, population patch clamp on CHO cells stably expressing hERG
# 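Also: peak tail current of the secondary pulse compared with the same well before compound.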
# human ether-à-go-go-related gene (hERG) potassium channel, sequence (Q12809 whole entry, looked up): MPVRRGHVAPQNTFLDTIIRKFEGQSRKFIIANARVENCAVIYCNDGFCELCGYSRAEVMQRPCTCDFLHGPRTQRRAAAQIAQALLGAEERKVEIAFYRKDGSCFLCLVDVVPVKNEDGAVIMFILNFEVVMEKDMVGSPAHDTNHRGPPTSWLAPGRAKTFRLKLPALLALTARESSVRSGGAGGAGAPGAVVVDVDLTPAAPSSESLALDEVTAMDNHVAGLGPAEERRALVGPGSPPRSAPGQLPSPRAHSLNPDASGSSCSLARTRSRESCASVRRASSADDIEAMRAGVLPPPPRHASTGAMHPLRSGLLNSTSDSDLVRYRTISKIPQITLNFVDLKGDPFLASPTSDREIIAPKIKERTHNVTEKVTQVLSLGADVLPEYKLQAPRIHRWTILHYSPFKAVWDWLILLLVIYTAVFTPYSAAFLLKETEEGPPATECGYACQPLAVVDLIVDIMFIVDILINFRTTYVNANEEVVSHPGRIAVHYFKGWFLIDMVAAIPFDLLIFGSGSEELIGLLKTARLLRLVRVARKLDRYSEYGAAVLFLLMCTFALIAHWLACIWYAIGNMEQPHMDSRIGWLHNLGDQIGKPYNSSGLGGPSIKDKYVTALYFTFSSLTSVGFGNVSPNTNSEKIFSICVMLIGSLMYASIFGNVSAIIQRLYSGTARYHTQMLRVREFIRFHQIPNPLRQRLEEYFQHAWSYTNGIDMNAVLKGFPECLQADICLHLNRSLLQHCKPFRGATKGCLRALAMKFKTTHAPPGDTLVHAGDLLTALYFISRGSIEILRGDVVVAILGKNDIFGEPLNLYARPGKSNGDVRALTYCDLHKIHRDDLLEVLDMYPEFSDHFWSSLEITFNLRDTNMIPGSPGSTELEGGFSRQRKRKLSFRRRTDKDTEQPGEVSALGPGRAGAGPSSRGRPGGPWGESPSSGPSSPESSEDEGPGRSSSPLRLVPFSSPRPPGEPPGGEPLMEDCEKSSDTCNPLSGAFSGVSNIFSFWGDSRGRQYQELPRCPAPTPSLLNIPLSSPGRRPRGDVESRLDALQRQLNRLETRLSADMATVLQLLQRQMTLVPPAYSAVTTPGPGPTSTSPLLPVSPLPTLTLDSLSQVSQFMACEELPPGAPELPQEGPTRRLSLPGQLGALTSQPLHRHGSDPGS
row,Structure (SMILES),"hERG current change (%, negative = inhibition) at 10uM [%]"
1,Cc1nn(Cc2ccccc2)c(C)c1NC(=O)c1cc(-c2cccs2)on1,0.998
2,C/C(=N\OCC(=O)Nn1c(C)nc2ccccc2c1=O)c1ccccc1,-13.8
3,Cc1ccc(/C=N/N2CCN(Cc3ccccc3)CC2)s1,-15.7
4,NNc1ccc(Cc2ccc(Cl)cc2Cl)nn1,6.66
5,CN=C(Nc1ccccc1OC)SC1CC(=O)N(c2ccc(C(=O)OC)cc2)C1=O (stereo not drawn),-12.5
6,COc1cccc(C(=O)Nc2ccc(NC(C)=O)cn2)c1,6.26
7,COc1ccc(C(C)=O)c(Oc2cc(NN3CCCCC3)c([N+](=O)[O-])cc2[N+](=O)[O-])c1,10.1
8,CCCCc1ccc(NC(=S)N2CCCC2)cc1,10.7
9,O=C(NCc1ccco1)/C(=C/c1cccc([N+](=O)[O-])c1)NC(=O)c1ccco1,-56.8
10,O=C(CN1CCCCCC1)N/N=C/c1ccc2ccccc2c1,-64.6
11,CCOc1cc(CNc2ccccc2)cc(Br)c1OCC(=O)NC(C)(C)C,2.76
12,O=C(Nc1ccc(N2CCOCC2)cc1)c1ccccc1SCC(=O)N1CCCC1,-0.824
13,CCCN(CCC)C(=O)Cn1c(=O)n(CCC(=O)NCCc2ccccc2)c(=O)c2ccccc21,-25
14,Cc1cc(C)n(-c2n[nH]c(C)c2[N+](=O)[O-])n1,3.22
15,Cc1ccc(OCC(=O)NCCc2c[nH]c3ccccc23)cc1,17.1
16,COc1ccc(S(=O)(=O)N2CCCOC2CNC(=O)C(=O)NCc2ccco2)cc1C (stereo not drawn),-11.4
17,COc1ccccc1NC(=O)c1ccccc1S(=O)(=O)c1ccccc1[N+](=O)[O-],8.91
18,COc1ccc(NC(C)=O)cc1NC(C)C(=O)Nc1ccc(F)c(F)c1F (stereo not drawn),1.83
19,O=C(NCC1COc2ccccc2O1)c1ccc(NC(=O)c2ccco2)cc1 (stereo not drawn),-11.2
20,O=S(=O)(c1ccccc1)N1CCN(C2CCCCCCC2)CC1,-8.74
21,COc1ccc(OC)c(NC(=O)CSc2nnnn2-c2ccc3c(c2)OCO3)c1,-7.22
22,O=C(/C=C/c1cccc([N+](=O)[O-])c1)Nc1cccc(NC(=O)c2ccco2)c1,-18.3
23,Cn1c(-[n+]2c(-c3ccccc3)cc(-c3ccccc3)cc2-c2ccccc2)nc2c([N+](=O)[O-])cccc21.[I-],-31
24,Cc1ccc(-c2nn(-c3ccccc3)cc2C(=O)N2CCOCC2)cc1,4.15
25,Cc1cc(C)c(NC(=S)NC(=O)c2ccc(-c3ccccc3)cc2)c(C)c1,9.6
26,COc1cc(C(=O)n2nc(C)cc2C)cc(OC)c1OC,16.2
27,COc1ccc(-n2nnnc2SCC(=O)NC2CCCC2)cc1OC,13.8

row,Structure (SMILES),"hERG current change (%, negative = inhibition) at 10uM [%]"
1,CCN(CCCNC(=O)CC(C(=O)N1CCc2ccccc21)n1ccnc1)c1cccc(C)c1 (stereo not drawn),-65
2,CCN(c1ccccc1)S(=O)(=O)c1ccc(OC)c(NS(=O)(=O)c2cccs2)c1,-11.2
3,CC(C)(C)CC(C)(C)NC(=O)CSCC(=O)Nc1ccc2ccccc2c1,-6.75
4,CCCC(=O)Nc1c(C(=O)OCC)oc2ccccc12,1.98
5,COc1ccc(S(=O)(=O)N2CCOC2CNC(=O)C(=O)NCCc2ccccc2OC)cc1 (stereo not drawn),-9.14
6,CCCCn1c(SCC(=O)N(CC)C2CCS(=O)(=O)C2)nnc1C(CC)N(C)C (stereo not drawn),8.8
7,CC(=O)c1ccc(S(=O)(=O)NCc2ccc(C(=O)N(C)CC(=O)Nc3cccc(F)c3)cc2)cc1,10.8
8,Clc1ccc(OCCOCCNCc2ccccc2)cc1Cl.O=C(O)C(=O)O,-44.1
9,COC(=O)c1ccc(S(=O)(=O)N2CCCCCC2)n1C,13.3
10,Cc1ccc2c(CC(=O)NNC(=O)c3ccncc3)coc2c1,14.6
11,Cc1csc(NC(=O)c2c(-c3c(Cl)cccc3Cl)noc2C)n1,6.22
12,CC1CCC2(CC1)NC(=O)N(CC(=O)Nc1nc(-c3ccc(F)cc3)cs1)C2=O (stereo not drawn),15.2
13,CN1CCc2c(sc3nc(SCC(=O)NCc4ccco4)n(-c4ccccc4)c(=O)c23)C1,-10.6
14,CCOc1ccc(-c2nc(C)c(C(C)=O)n2O)cc1,-0.685
15,O=C(NCCC1=CCCCC1)C(=O)NCC(c1ccco1)N1CCN(c2ccccc2F)CC1 (stereo not drawn),2.07
16,Cc1ccc(S(=O)(=O)NC(=O)CSc2nc3ccccc3s2)cc1,-6.94
17,O=C(NCCc1cnn(-c2ccccc2)c1)c1cc(COc2c(F)cccc2F)on1,-3.63
18,O=C(CSc1nnc2c(n1)[nH]c1ccc(S(=O)(=O)N3CCOCC3)cc12)Nc1ccccc1Cl,12.8
19,Cc1cccc(OC(=O)Cn2c(C(F)(F)F)nc3ccccc32)c1,17.6
20,C=CCn1c(CCC(=O)O)ccc1-c1ccc(OC)cc1,12.3
21,Cc1cc(C)nc(NC(=S)Nc2ccc(F)cc2F)c1,3.45
22,COc1ccccc1CNC(=O)c1cc(S(=O)(=O)N2CCCC2)cn1C,-4.26
23,Cc1cc2cc(CCNC(=O)C(C)C)c(=O)[nH]c2cc1C,2.03
24,Cc1ccc(C(=O)COC(=O)c2n[nH]c(=O)c3ccccc23)cc1,6.94
25,CC(NC(=O)C(=O)NCCc1c[nH]c2ccccc12)c1ccccc1 (stereo not drawn),14
26,Cc1ccc(S(=O)(=O)N2[C@@H](c3ccccc3F)C(C(=O)O)=CC[C@H]2c2cccc(C)c2)cc1,3.74
27,Cc1c(C(=O)N/N=C/C(C)C)[nH]c2ccc([N+](=O)[O-])cc12,-9.03
